By Ki is commonly meant the dissociation constant of the complex between target and ligand, obtained from inhibition or displacement.

In the first assay the target is T1, human orexin 1 receptor (Homo sapiens (Human), UniProt O43613).
T1 sequence (O43613 whole entry): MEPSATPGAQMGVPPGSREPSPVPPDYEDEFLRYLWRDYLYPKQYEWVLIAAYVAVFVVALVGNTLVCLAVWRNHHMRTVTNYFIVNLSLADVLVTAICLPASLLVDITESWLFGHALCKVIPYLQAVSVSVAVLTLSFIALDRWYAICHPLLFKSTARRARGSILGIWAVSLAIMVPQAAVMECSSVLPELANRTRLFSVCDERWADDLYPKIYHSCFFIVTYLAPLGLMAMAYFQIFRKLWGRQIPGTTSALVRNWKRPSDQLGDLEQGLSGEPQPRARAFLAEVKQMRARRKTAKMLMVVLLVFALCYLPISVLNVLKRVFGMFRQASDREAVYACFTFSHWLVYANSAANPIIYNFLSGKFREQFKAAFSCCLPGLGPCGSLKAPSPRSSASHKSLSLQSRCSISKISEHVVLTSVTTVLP
Experiment: not given
The conditions noted are these: read-out: OR 1 Ki, radioligand competition binding.
`O=C(c1cccc(F)c1-c1ncccc1F)N1CC2CN(c3cnc4cc(F)c(F)cc4n3)CC2C1` (stereo not shown) [Example 450, 6,7-Difluoro-2-[5-{[3-fluoro-2-(3-fluoropyridin-2-yl)phenyl]carbonyl}hexahydropyrrolo[3,4-c]pyrrol-2(1H)-yl]quinoxaline]: the Ki was 922 nM.
On the same count and under the same terms, next, `O=C(c1cccc(F)c1-c1ncco1)N1CC2CN(c3cnc4cc(F)c(F)cc4n3)CC2C1` (stereo not shown) [Example 451, 6,7-Difluoro-2-[5-{[3-fluoro-2-(1,3-oxazol-2-yl)phenyl]carbonyl}hexahydropyrrolo[3,4-c]pyrrol-2(1H)-yl]quinoxaline]: 630 nM; `O=C(c1cccc(F)c1-c1ccccn1)N1CC2CN(c3cnc4cc(F)c(F)cc4n3)CC2C1` (stereo not shown) [Example 452, 6,7-Difluoro-2-{5-[(3-fluoro-2-pyridin-2-ylphenyl)carbonyl]hexahydropyrrolo[3,4-c]pyrrol-2(1H)-yl}quinoxaline]: 692 nM; `COc1cccnc1-c1c(F)cccc1C(=O)N1CC2CN(c3cnc4cc(F)c(F)cc4n3)CC2C1` (stereo not shown) [Example 453, 6,7-Difluoro-2-[5-{[3-fluoro-2-(3-methoxypyridin-2-yl)phenyl]carbonyl}hexahydropyrrolo[3,4-c]pyrrol-2(1H)-yl]quinoxaline]: 2770 nM.
For the molecule `O=C(c1cccc(F)c1-c1cncs1)N1CC2CN(c3cnc4cc(F)c(F)cc4n3)CC2C1` (stereo not shown) [Example 454, 6,7-Difluoro-2-[5-{[3-fluoro-2-(1,3-thiazol-5-yl)phenyl]carbonyl}hexahydropyrrolo[3,4-c]pyrrol-2(1H)-yl]quinoxaline], the Ki was 245 nM.
Same read-out and setting: next, `O=C(c1cccc(F)c1-c1cscn1)N1CC2CN(c3cnc4cc(F)c(F)cc4n3)CC2C1` (stereo not shown) [Example 455, 6,7-Difluoro-2-[5-{[3-fluoro-2-(1,3-thiazol-4-yl)phenyl]carbonyl}hexahydropyrrolo[3,4-c]pyrrol-2(1H)-yl]quinoxaline]: 357 nM; `O=C(c1cccc(F)c1-c1[nH]ncc1F)N1CC2CN(c3cnc4cc(F)c(F)cc4n3)CC2C1` (stereo not shown) [Example 456, 6,7-Difluoro-2-[5-{[3-fluoro-2-(4-fluoro-1H-pyrazol-5-yl)phenyl]carbonyl}hexahydropyrrolo[3,4-c]pyrrol-2(1H)-yl]quinoxaline]: 453 nM.
Same read-out and setting: next, `COc1ccc(C(=O)N2CC3CN(c4cnc5cc(F)c(F)cc5n4)CC3C2)c(-c2ncccn2)c1` (stereo not shown) [Example 459, 6,7-Difluoro-2-{5-[(4-methoxy-2-pyrimidin-2-ylphenyl)carbonyl]hexahydropyrrolo[3,4-c]pyrrol-2(1H)-yl}quinoxaline]: 207 nM; `Cc1cccc(C(=O)N2CC3CN(c4cnc5cc(F)c(F)cc5n4)CC3C2)c1-n1nccn1` (stereo not shown) [Example 460, 6,7-Difluoro-2-[5-{[3-methyl-2-(2H-1,2,3-triazol-2-yl)phenyl]carbonyl}hexahydropyrrolo[3,4-c]pyrrol-2(1H)-yl]quinoxaline]: 2760 nM; `Cc1cc(C)nc(N2CC3CN(C(=O)c4cccc5c4OCC5)CC3C2)n1` (stereo not shown) [Example 463, 2-(2,3-Dihydro-1-benzofuran-7-ylcarbonyl)-5-(4,6-dimethylpyrimidin-2-yl)octahydropyrrolo[3,4-c]pyrrole]: 10000 nM.
On the same count and under the same terms, the result for `Cc1cc(C)nc(N2CC3CN(C(=O)c4c(C)nc5sccn45)CC3C2)n1` (stereo not shown) [Example 464, 5-{[5-(4,6-Dimethylpyrimidin-2-yl)hexahydropyrrolo[3,4-c]pyrrol-2(1H)-yl]carbonyl}-6-methylimidazo[2,1-b][1,3]thiazole] reads 10000 nM; that for `COc1cccc(-n2nccn2)c1C(=O)N1CC2CN(c3nc(C)cc(C)n3)CC2C1` (stereo not shown) [Example 465, 2-(4,6-Dimethylpyrimidin-2-yl)-5-{[2-methoxy-6-(2H-1,2,3-triazol-2-yl)phenyl]carbonyl}octahydropyrrolo[3,4-c]pyrrole], 2360 nM.
Consider `Cc1cc(C)nc(N2CC3CN(C(=O)c4cccc(F)c4-c4ccccn4)CC3C2)n1` (stereo not shown) [Example 472, (5-(4,6-dimethylpyrimidin-2-yl)hexahydropyrrolo[3,4-c]pyrrol-2(1H)-yl)(3-fluoro-2-(pyridin-2-yl)phenyl)methanone], for which the Ki was determined as 1080 nM.
The same measure, in the same setting: next, `Cc1cc(C)nc(N2CC3CN(C(=O)c4c(F)cccc4-c4nccs4)CC3C2)n1` (stereo not shown) [Example 476, 2-(4,6-Dimethylpyrimidin-2-yl)-5-{[2-fluoro-6-(1,3-thiazol-2-yl)phenyl]carbonyl}octahydropyrrolo[3,4-c]pyrrole]: 1390 nM.
Turning to `Cc1cc(C)nc(N2CC3CN(C(=O)c4c(F)cccc4-c4ncc(C)s4)CC3C2)n1` (stereo not shown) [Example 477, 2-(4,6-Dimethylpyrimidin-2-yl)-5-{[2-fluoro-6-(5-methyl-1,3-thiazol-2-yl)phenyl]carbonyl}octahydropyrrolo[3,4-c]pyrrole], the Ki came to 269 nM.
The same measure, in the same setting: the result for `COc1ncc(-c2cccc(F)c2C(=O)N2CC3CN(c4nc(C)cc(C)n4)CC3C2)s1` (stereo not shown) [Example 479, 2-(4,6-Dimethylpyrimidin-2-yl)-5-{[2-fluoro-6-(2-methoxy-1,3-thiazol-5-yl)phenyl]carbonyl}octahydropyrrolo[3,4-c]pyrrole] reads 9000 nM.
On to `Cc1cc(C)nc(N2CC3CN(C(=O)c4c(F)cccc4C4=CC(=O)OC4)CC3C2)n1` (stereo not shown) [Example 480, 4-(2-{[5-(4,6-Dimethylpyrimidin-2-yl)hexahydropyrrolo[3,4-c]pyrrol-2(1H)-yl]carbonyl}-3-fluorophenyl)furan-2(5H)-one], for which the Ki was found to be 10000 nM.
Same read-out and setting: next, `Cc1cc(C)nc(N2CC3CN(C(=O)c4c(F)cccc4-c4ncccc4F)CC3C2)n1` (stereo not shown) [Example 481, 2-(4,6-Dimethylpyrimidin-2-yl)-5-{[2-fluoro-6-(3-fluoropyridin-2-yl)phenyl]carbonyl}octahydropyrrolo[3,4-c]pyrrole]: 1500 nM; `Cc1cc(C)nc(N2CC3CN(C(=O)c4c(F)cccc4-c4cn(C)cn4)CC3C2)n1` (stereo not shown) [Example 482, 2-(4,6-Dimethylpyrimidin-2-yl)-5-{[2-fluoro-6-(1-methyl-1H-imidazol-4-yl)phenyl]carbonyl}octahydropyrrolo[3,4-c]pyrrole]: 1340 nM; `COc1ccnc(-c2cccc(F)c2C(=O)N2CC3CN(c4nc(C)cc(C)n4)CC3C2)n1` (stereo not shown) [Example 483, 2-(4,6-Dimethylpyrimidin-2-yl)-5-{[2-fluoro-6-(4-methoxypyrimidin-2-yl)phenyl]carbonyl}octahydropyrrolo[3,4-c]pyrrole]: 284 nM.
The same measure, in the same setting: next, `CSc1nccc(-c2cccc(F)c2C(=O)N2CC3CN(c4nc(C)cc(C)n4)CC3C2)n1` (stereo not shown) [Example 485, 2-(4,6-Dimethylpyrimidin-2-yl)-5-({2-fluoro-6-[2-(methylsulfanyl)pyrimidin-4-yl]phenyl}carbonyl)octahydropyrrolo[3,4-c]pyrrole]: 9220 nM; `Cc1cc(C)nc(N2CC3CN(C(=O)c4c(F)cccc4-c4cscn4)CC3C2)n1` (stereo not shown) [Example 486, 2-(4,6-Dimethylpyrimidin-2-yl)-5-{[2-fluoro-6-(1,3-thiazol-4-yl)phenyl]carbonyl}octahydropyrrolo[3,4-c]pyrrole]: 1300 nM.
Same read-out and setting: the result for `Cc1cc(C)nc(N2CC3CN(C(=O)c4c(F)cccc4-c4cncs4)CC3C2)n1` (stereo not shown) [Example 487, 2-(4,6-Dimethylpyrimidin-2-yl)-5-{[2-fluoro-6-(1,3-thiazol-5-yl)phenyl]carbonyl}octahydropyrrolo[3,4-c]pyrrole] reads 3050 nM.
For the molecule `Cc1cc(C)nc(N2CC3CN(C(=O)c4c(F)cccc4-c4ccnnc4)CC3C2)n1` (stereo not shown) [Example 488, 2-(4,6-Dimethylpyrimidin-2-yl)-5-[(2-fluoro-6-pyridazin-4-ylphenyl)carbonyl]octahydropyrrolo[3,4-c]pyrrole], the Ki stood at 10000 nM.
Still for that read-out and setting: next, `Cc1ccnc(-c2cccc(F)c2C(=O)N2CC3CN(c4nc(C)cc(C)n4)CC3C2)c1` (stereo not shown) [Example 489, 2-(4,6-Dimethylpyrimidin-2-yl)-5-{[2-fluoro-6-(4-methylpyridin-2-yl)phenyl]carbonyl}octahydropyrrolo[3,4-c]pyrrole]: 3700 nM; `Cc1cc(C)nc(N2CC3CN(C(=O)c4c(F)cccc4-c4ncco4)CC3C2)n1` (stereo not shown) [Example 491, 2-(4,6-Dimethylpyrimidin-2-yl)-5-{[2-fluoro-6-(1,3-oxazol-2-yl)phenyl]carbonyl}octahydropyrrolo[3,4-c]pyrrole]: 926 nM.
With `Cc1cc(C)nc(N2CC3CN(C(=O)c4cc(F)ccc4-c4cccn4C)CC3C2)n1` (stereo not shown) [Example 493, 2-(4,6-Dimethylpyrimidin-2-yl)-5-{[5-fluoro-2-(1-methyl-1H-pyrrol-2-yl)phenyl]carbonyl}octahydropyrrolo[3,4-c]pyrrole], the Ki is 10000 nM.
On to `Cc1cc(C)nc(N2CC3CN(C(=O)c4cc(F)ccc4-c4cscn4)CC3C2)n1` (stereo not shown) [Example 494, 2-(4,6-Dimethylpyrimidin-2-yl)-5-{[5-fluoro-2-(1,3-thiazol-4-yl)phenyl]carbonyl}octahydropyrrolo[3,4-c]pyrrole], for which the Ki came out at 10000 nM.
As to `Cc1nc(N2CC3CN(C(=O)c4cccc(F)c4-c4ncco4)CC3C2)ncc1F` (stereo not shown) [Example 496, 2-(5-Fluoro-4-methylpyrimidin-2-yl)-5-{[3-fluoro-2-(1,3-oxazol-2-yl)phenyl]carbonyl}octahydropyrrolo[3,4-c]pyrrole], the Ki turned out to be 1730 nM.

The next assay concerns the target T1, human orexin 1 receptor. Description: biochemical.
Conditions: not given
For `[2H]c1c(C([2H])([2H])[2H])nc(N2CC3CN(C(=O)c4cccc(F)c4-c4ncccn4)CC3C2)nc1C([2H])([2H])[2H]` (stereo not shown) [Example 431, 2-{4,6-Bis[(^2H3)methyl](^2H)pyrimidin-2-yl}-5-[(3-fluoro-2-pyrimidin-2-ylphenyl)carbonyl]octahydropyrrolo[3,4-c]pyrrole], affinity was put at a Ki of 1880 nM.
Same read-out and setting: next, `Cc1cc(C)nc(N2CC3CN(C(=O)c4c(F)cccc4-c4[nH]ncc4C(F)(F)F)CC3C2)n1` (stereo not shown) [Example 478, 2-(4,6-Dimethylpyrimidin-2-yl)-5-({2-fluoro-6-[4-(trifluoromethyl)-1H-pyrazol-5-yl]phenyl}carbonyl)octahydropyrrolo[3,4-c]pyrrole]: 4220 nM.
